# According to PubChem BioAssay AID504333 (National Center for Advancing Translational Sciences (NCATS), 2011):
# Out of some 360,000 compounds screened, about 16,000 (4.4%) were called active. Inconclusive means that the source gave no clear call. Such entries were picked first, then a sample of the others. Calls come from the whole dose curve; as a rule, active = well fitted inhibition curve with a large enough effect; inconclusive = small, poorly fitted or top-dose-only effect; inactive = no such curve, though single readings can be large or run the other way. Where the call is inconclusive, the potency comes from a doubtful curve fit.
# Molecular target: Bromodomain adjacent to zinc finger domain protein 2B (Homo sapiens) (UniProt Q9UIF8)
# Experiment: qHTS Assay for Inhibitors of BAZ2B; note: nearly all actives have a fitted effect of over 60% in size
# Settings: AlphaScreen BAZ2B-H3K14Ac peptide displacement; activity change, negative = inhibition: at 114 µM (top of the series)
# Summary of the method: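 BAZ2B 50 nM plus b-H3(5-23)K14Ac 50 nM, PBS pH 7.4/0.01% Tween-20, 30 min RT; compound added (max 110 uM), 30 min RT; streptavidin donor/Ni-chelate acceptor beads 10 ug/mL final, 20 min dark; AlphaScreen read.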
# % is set by controls: 0 for no effect and ±100 for the full control effect; potency is the fitted concentration of half-maximal effect; tags give direction and shape of the fitted curve.
# Chain of UniProt Q9UIF8 (Q9UIF8 whole entry, looked up, the tested form may be a part): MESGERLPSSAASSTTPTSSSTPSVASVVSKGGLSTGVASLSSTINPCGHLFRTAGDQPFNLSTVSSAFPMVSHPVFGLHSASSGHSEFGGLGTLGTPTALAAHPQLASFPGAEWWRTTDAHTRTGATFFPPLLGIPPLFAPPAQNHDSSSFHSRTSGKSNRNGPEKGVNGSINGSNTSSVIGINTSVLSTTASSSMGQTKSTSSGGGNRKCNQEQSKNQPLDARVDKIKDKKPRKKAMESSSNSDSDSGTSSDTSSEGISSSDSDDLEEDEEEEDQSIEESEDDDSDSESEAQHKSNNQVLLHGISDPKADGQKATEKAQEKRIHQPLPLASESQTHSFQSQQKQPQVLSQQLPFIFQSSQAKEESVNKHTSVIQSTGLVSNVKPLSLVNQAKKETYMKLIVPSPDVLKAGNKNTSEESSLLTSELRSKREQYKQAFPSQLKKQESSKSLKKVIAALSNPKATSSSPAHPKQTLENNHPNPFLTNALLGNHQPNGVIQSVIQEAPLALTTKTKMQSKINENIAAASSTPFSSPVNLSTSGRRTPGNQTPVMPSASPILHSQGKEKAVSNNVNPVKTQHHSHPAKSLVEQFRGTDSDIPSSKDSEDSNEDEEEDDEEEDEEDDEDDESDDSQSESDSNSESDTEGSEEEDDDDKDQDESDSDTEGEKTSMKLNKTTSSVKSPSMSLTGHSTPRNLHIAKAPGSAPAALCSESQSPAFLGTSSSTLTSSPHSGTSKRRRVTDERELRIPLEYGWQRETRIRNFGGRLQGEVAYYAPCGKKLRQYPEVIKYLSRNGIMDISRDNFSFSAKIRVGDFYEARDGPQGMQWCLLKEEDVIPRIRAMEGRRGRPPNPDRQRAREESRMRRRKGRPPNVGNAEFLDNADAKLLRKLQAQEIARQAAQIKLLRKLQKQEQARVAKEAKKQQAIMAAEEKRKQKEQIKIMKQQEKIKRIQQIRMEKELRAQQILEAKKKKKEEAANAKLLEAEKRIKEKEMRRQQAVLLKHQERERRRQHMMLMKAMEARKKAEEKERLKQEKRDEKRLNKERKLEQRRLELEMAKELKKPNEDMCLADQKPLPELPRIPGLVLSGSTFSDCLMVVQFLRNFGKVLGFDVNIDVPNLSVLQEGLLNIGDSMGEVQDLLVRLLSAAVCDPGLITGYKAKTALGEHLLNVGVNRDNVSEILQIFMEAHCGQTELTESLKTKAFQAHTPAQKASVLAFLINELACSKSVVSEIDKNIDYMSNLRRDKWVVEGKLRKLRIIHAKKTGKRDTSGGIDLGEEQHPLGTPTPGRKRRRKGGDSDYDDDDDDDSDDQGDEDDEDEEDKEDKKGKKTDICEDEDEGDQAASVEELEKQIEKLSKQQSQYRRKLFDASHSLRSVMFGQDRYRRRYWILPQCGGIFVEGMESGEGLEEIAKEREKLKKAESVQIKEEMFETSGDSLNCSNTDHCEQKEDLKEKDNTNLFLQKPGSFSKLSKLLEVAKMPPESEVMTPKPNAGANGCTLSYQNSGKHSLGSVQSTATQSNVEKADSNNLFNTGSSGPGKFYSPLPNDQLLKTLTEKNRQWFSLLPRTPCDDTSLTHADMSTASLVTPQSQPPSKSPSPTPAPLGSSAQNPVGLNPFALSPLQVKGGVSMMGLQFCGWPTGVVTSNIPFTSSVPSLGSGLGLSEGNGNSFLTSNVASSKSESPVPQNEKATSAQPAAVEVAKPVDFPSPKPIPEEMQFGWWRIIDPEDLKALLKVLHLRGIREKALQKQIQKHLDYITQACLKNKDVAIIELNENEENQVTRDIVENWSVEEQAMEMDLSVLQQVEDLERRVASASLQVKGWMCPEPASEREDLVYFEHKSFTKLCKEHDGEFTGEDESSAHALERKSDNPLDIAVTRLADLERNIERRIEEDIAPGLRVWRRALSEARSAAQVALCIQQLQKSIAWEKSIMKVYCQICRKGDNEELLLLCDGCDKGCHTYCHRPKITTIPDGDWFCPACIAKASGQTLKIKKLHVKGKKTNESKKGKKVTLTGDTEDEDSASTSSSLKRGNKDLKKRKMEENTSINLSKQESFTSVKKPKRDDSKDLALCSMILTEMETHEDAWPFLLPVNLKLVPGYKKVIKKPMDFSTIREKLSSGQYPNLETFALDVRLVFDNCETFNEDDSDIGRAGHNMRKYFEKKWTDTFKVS
Compound,Potency,"activity change, negative = inhibition"
COc1cc(C(=O)NC(C)c2ccc(-n3ccnc3)cc2)cc(OC)c1C (configuration not stated),active: 50.1 µM,–
CCOC(=O)N1CCC(N2Cc3cccc(C(=O)Nc4ccc(N(CC)CC)cc4C)c3C2=O)CC1,active: 14.1 µM,–
O=C(NCCCn1ccnc1)c1ccc(N2CCCCC2)c([N+](=O)[O-])c1,"inconclusive: 50.1 µM [inhibitor, partial curve]",–
CCOC(=O)/C(=N\Nc1ccc(Cl)cc1)Sc1nnc(-c2ccc(OC)cc2)n1C,"inconclusive: 79.4 µM [inhibitor, single point]",–
Cc1ccc(CNc2ccc3c(c2)ncn3C(C)C)cc1,active: 35.5 µM,–
COc1ccc(C(=O)/C=C/c2ccc(C)cc2)c(OC(=O)c2ccc([N+](=O)[O-])cc2)c1,"inconclusive: 79.4 µM [inhibitor, single point]",–
CC(=O)c1c(N2CCCC2)[nH]c(-c2ccccc2)nc1=S,"inconclusive: 70.8 µM [inhibitor, single point]",–
O=C(Nc1cc(N2CCOCC2)ncn1)NC1(C(F)(F)F)Oc2ccccc2O1,–,inactive: -1.25%
COc1cc(/C=C2\C(C)=C(C#N)c3nc(N)c(C#N)c(C)c32)ccc1OCC(=O)O,active: 56.2 µM,–
COc1ccc2nc(/N=C\N(C)C)sc2c1,active: 56.2 µM,–
CCN1C(C(=O)c2ccccc2)=C(OC(=O)COc2ccc(C)cc2)c2ccccc2S1(=O)=O,"inconclusive: 79.4 µM [inhibitor, single point]",–
O=c1cc(-c2cc3ccccc3o2)c2cc(O)ccc2o1,"inconclusive: 89.1 µM [inhibitor, single point]",–
N=C1/C(=C\c2ccc(-c3ccc(C(=O)O)cc3)o2)C(=O)N=C2SC=C(c3ccccc3)N12,active: 4.47 µM,–
Cc1cc(N2CCCC2)c(C)cc1C=O,"inconclusive: 100 µM [inhibitor, single point]",–
COC(=O)[C@@]1(Cc2ccccc2)[C@H]2c3cc(C(=O)N4CCCC4)n(CCSCCO)c3C[C@H]2CN1C(=O)c1ccccc1,"inconclusive: 50.1 µM [inhibitor, partial curve]",–
Cc1ccc(C(=O)NC(=S)/C=C2\N(C)c3ccccc3C2(C)C)cc1,active: 12.6 µM,–
CCN(CC)CCN(CC(=O)N(C1CCCCC1)C1CCCCC1)C(=O)c1ccco1,active: 50.1 µM,–
O=C(NC1=C(NC2CCS(=O)(=O)C2)C(=O)c2ccccc2C1=O)c1ccccc1 (configuration not stated),"inconclusive: 56.2 µM [inhibitor, partial curve]",–
Cc1cc(C(F)F)n2nc(C(=O)Nc3sc4c(c3C#N)CCC4)nc2n1,"inconclusive: 89.1 µM [inhibitor, single point]",–
Cc1cnc(C(=O)Nc2nnc(C3CC3)s2)cn1,"inconclusive: 39.8 µM [inhibitor, single point]",–
COc1ccc(N2CCN(CCCNC(=O)C3COc4ccccc4C3)CC2)cc1 (configuration not stated),"inconclusive: 44.7 µM [inhibitor, partial curve, poor fit]",–
O=c1c2ccccc2ncn1Cc1ccc(Cl)c(Cl)c1,–,inactive: 3.44%
COc1ccc(CC(=O)NC2CC(C)(C)NC(C)(C)C2)cc1OC,–,inactive: -25%
CC(NC(=O)/C(C#N)=C1\N=C(NC(=O)c2cccs2)c2ccccc21)c1ccccc1 (configuration not stated),"inconclusive: 28.2 µM [inhibitor, partial curve]",–

Compound,Potency,"activity change, negative = inhibition"
Cc1ccc(S(=O)(=O)N2CCC(C)CC2)cc1[N+](=O)[O-],"inconclusive: 56.2 µM [inhibitor, partial curve]",–
COc1ccc(N(CC(=O)Nc2cccc(Cl)c2)S(=O)(=O)c2c(C)[nH]c(=O)[nH]c2=O)cc1,–,inactive: -5.88%
CCc1nnc(NC(=O)CSc2sc3c(O)cc(=O)[nH]c3c2C#N)s1,active: 20 µM,–
Cc1nn(CC(=O)Nc2ccncc2)c(C)c1[N+](=O)[O-],–,inactive: -4.25%
COC(=O)C1=C(C)N(CC2CCCO2)C(=O)/C1=C\c1ccc(O)cc1 (configuration not stated),"inconclusive: 89.1 µM [inhibitor, single point]",–
O=C(Nc1ccc(C(=O)O)cc1)/C(=C\c1ccc2c(c1)OCO2)NC(=O)c1ccc(Br)o1,–,inactive: -3.81%
O=C(O)Cn1cc(/C=N/NC(=O)c2cc3cc(Br)ccc3o2)c2ccccc21,active: 50.1 µM,–
O=C(NCCc1ccccc1)c1cc(Nc2ccccc2)nc2ccccc12,"inconclusive: 89.1 µM [inhibitor, single point]",–
C#CCOCCOCCOCCNc1nc(N2CCN(C(=O)[C@H](CCCCN)n3cc(C(N)CO)nn3)CC2)nc(N2CCN(C(=O)[C@H](CCC(=O)O)n3cc(C(N)CC(C)C)nn3)CC2)n1 (some centres not stated),active: 20 µM,–
Cc1ccccc1-c1noc(CSc2nc3ccccc3[nH]2)n1,–,inactive: 6.71%
Clc1ccc(CNc2cnccn2)cc1Cl,"inconclusive: 63.1 µM [inhibitor, partial curve, poor fit]",–
COCCCn1c(SCc2cccc(Cl)c2)nc2c(sc3ccccc32)c1=O,–,inactive: 0.786%
Cc1cc(C)nc(-n2nc(C)c3c2N(Cc2ccccc2F)C(=O)CC3c2ccc(Cl)cc2)n1 (configuration not stated),"inconclusive: 79.4 µM [inhibitor, single point]",–
CCc1cc(=O)oc2cc(C)c(CN3CCCC(C)C3)c(O)c12 (configuration not stated),active: 22.4 µM,–
CCc1ccccc1NC(=O)C1CCN(S(=O)(=O)c2cn(C)cn2)CC1,–,inactive: -10.3%
C/C(=N\NC(=S)NCCc1ccccc1)c1ccc(O)cc1O,"inconclusive: 2.82 µM [inhibitor, full curve]",–
O=C(O)C1Cc2ccccc2CN1S(=O)(=O)c1ccc2ccccc2c1 (configuration not stated),active: 50.1 µM,–
COc1ccc(OC)c(N2C(=O)c3cccnc3C2=O)c1,active: 79.4 µM,–
O=C(Nc1cc(Br)c(O)c(Br)c1)c1cccc(NC(=O)c2ccco2)c1,active: 50.1 µM,–
COc1ccc(CCNCc2cc(C)n(-c3ccc(OC)cc3)c2C)cc1,active: 28.2 µM,–
O=S(=O)(c1ccc(Cl)cc1)c1nc(-c2cccs2)oc1N1CCCCC1,active: 14.1 µM,–
CCNC(=O)NC(=O)C(C)Sc1nnc(COc2ccccc2Cl)o1 (configuration not stated),"inconclusive: 100 µM [inhibitor, single point]",–
O=C(OC1Cn2c(=O)ccc(=O)n2C1)c1ccc([N+](=O)[O-])cc1,–,inactive: -1.23%
CN1CCN(c2ccc([N+](=O)[O-])cc2NC(=O)c2ccco2)CC1,–,inactive: -2.64%

Compound,Potency,"activity change, negative = inhibition"
COc1ccc(N=Nc2cc(-c3ccccc3)ccc2O)cc1,active: 10 µM,–
O=C(Nc1ccc(N2CCCC2)c(Cl)c1)c1ccc(Br)o1,"inconclusive: 89.1 µM [inhibitor, single point]",–
Nc1[nH]c(N=NC(=O)c2ccccc2)c2ccccc12,"inconclusive: 50.1 µM [inhibitor, partial curve]",–
Cc1cccc(C)c1-n1ncc(C(=O)NCCCN2CCC(C)CC2)c1C1CCN(C(=O)OC(C)(C)C)CC1,–,inactive: 8.14% [at 57.1 µM]
CCc1nnc(NC(=O)c2sc3nc4cc(C)ccc4cc3c2N)s1,"inconclusive: 89.1 µM [inhibitor, single point]",–
CC(=O)Nc1cc(C(=O)O)ccc1S(=O)(=O)c1ccc(Cl)cc1,"inconclusive: 89.1 µM [inhibitor, single point]",–
O=C(CN1CCN(c2ccc(O)cc2)CC1)Nc1cc(S(=O)(=O)N2CCOCC2)ccc1Cl,"inconclusive: 79.4 µM [inhibitor, single point]",–
Cc1cc(NC(=O)c2sc3ccccc3c2O)no1,"inconclusive: 70.8 µM [inhibitor, single point]",–
CC(NS(=O)(=O)c1ccc(Cl)cc1)C(=O)NCc1ccco1 (configuration not stated),"inconclusive: 89.1 µM [inhibitor, single point]",–
COc1ccc(-c2ccc3c(c2)S(=O)(=O)c2cccc(C(=O)NCc4ccccc4Cl)c2C3=O)cc1OC,"inconclusive: 89.1 µM [inhibitor, single point]",–
CCc1cc(C(=O)Nc2cc(S(=O)(=O)N(CC)CC)ccc2N2CCN(C)CC2)sc1C,–,inactive: -10.5%
Cn1ncc2c(N3CCN(c4ccc(F)cc4)CC3)ncnc21,active: 79.4 µM,–
CCc1nc(SCC(=O)c2cc(C)ccc2C)n[nH]1,"inconclusive: 100 µM [inhibitor, single point]",–
CC1CCN(C(=O)c2[nH]cnc2C(=O)NCc2ccc(CNC(=O)OC(C)(C)C)cc2)CC1,–,inactive: -10.4%
CC1(c2ccc(NC(=O)c3ccccc3F)cc2)CC1(Cl)Cl (configuration not stated),–,inactive: 16.2%
O=C(N/N=C/c1ccc([N+](=O)[O-])o1)C(=O)Nc1ccc(C(=O)O)cc1,–,inactive: -1.94%
COc1ccccc1N(CC(=O)NC1CCCC1)C(=O)c1oc(C(C)(C)C)cc1C,"inconclusive: 50.1 µM [inhibitor, partial curve]",–
CN(CC(=O)Nc1cccc(F)c1)C(=O)c1cccc(-n2cccc2)c1,active: 28.2 µM,–
O=C(NCC1CCN(C(=O)c2c(F)c(F)c(F)c(F)c2F)CC1)c1c(F)c(F)c(F)c(F)c1F,–,inactive: -1.24%
NC(=O)Cn1c(=O)n(Cc2ccccc2)c(=O)c2cccnc21,–,inactive: -1.48%
COc1ccc(CC(C)NS(=O)(=O)c2ccc3c(c2)CCN3S(C)(=O)=O)cc1OC (configuration not stated),"inconclusive: 89.1 µM [inhibitor, single point]",–
COC(=O)c1ccc2nc(NC(=O)COC(=O)CSc3nc(C)cc(C)n3)sc2c1,"inconclusive: 79.4 µM [inhibitor, single point]",–
CC(=O)Nc1ccc(-c2sc(Nc3cccc4ccccc34)n[n+]2-c2ccccc2)cc1,"inconclusive: 50.1 µM [inhibitor, partial curve]",–
Cc1ccc(C)c(-c2nn(-c3cc(N4CCN(CCO)CC4)ccc3[N+](=O)[O-])c(=O)c3ccccc23)c1,active: 44.7 µM,–
